Source: PubChem BioAssay AID588855 (National Center for Advancing Translational Sciences (NCATS), 2011)
Screen size: about 410,000 compounds; about 5,000 (1.2%) were called active. Inconclusive means that the source gave no clear call. Such entries were picked first, then a sample of the others. Calls follow the shape of the dose curve; as a rule, active = well fitted inhibition curve with a large enough effect; inconclusive = small, poorly fitted or top-dose-only effect; inactive = no such curve, though single readings can be large or run the other way. Potencies beside an inconclusive call are fits to weak or partial responses and may not hold up.
Potency is read from the fitted curve at half-maximal effect; tags tell the direction and shape of the fitted curve.

Experiment: qHTS for Inhibitors of TGF-b; also: nearly all actives have a fitted effect of over 65% in size
Details: HepG2 CAGA-GFP TGF-b/SMAD3 reporter, GFP fluorescence, 18 h, TGF-beta stimulated, 500 pg/mL final; series mostly up to 46.1 µM
Summary of the method: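 Cell-based qHTS in HEPG2 carrying a CAGA-GFP Smad reporter; compounds added before 500 pg/mL final TGF-beta, 18 h incubation at 37 degrees C, GFP fluorescence quantified per cell by imaging cytometry.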
With `CC(CCc1ccccc1)NC(=O)/C=C/c1ccc(Cl)cc1` (centres undefined) the Potency was inconclusive: 35.5 µM [inhibitor, single point]. For `CC1CCN(CCCNC(=O)c2cc3c(Cl)nc4ccccc4c3s2)CC1`, the Potency was inconclusive: 35.5 µM [inhibitor, single point]. In the case of `O=C(CC(c1ccccc1)c1ccccc1)Nc1ccncc1`, the Potency is reported as inconclusive: 20 µM [inhibitor, partial curve, poor fit]. In the case of `COc1ccc2cc(C(=O)C3CCCN(Cc4cnc(N5CCOCC5)s4)C3)ccc2c1` (centres undefined), the Potency is reported as inconclusive: 31.6 µM [inhibitor, single point]. In the case of `CCOC(=O)c1ccn(CSc2c(F)c(F)cc(F)c2F)n1`, the Potency is reported as inconclusive: 35.5 µM [inhibitor, single point]. For `NNc1nc(Nc2ccc([N+](=O)[O-])cc2)nc(N2CCCCCC2)n1`, the Potency was inconclusive: 14.1 µM [inhibitor, single point]. With `CCn1cc(/C=N\NC(=O)c2ccc(F)cc2)cn1` the Potency was “inactive”. With `Cc1ccccc1CNC(=O)CCC(=O)N1CC2CCCN2c2ccccc21` (centres undefined) the Potency was inconclusive: 8.91 µM [inhibitor, partial curve, poor fit]. For `Cc1cc(O)c(-c2ccnc3cc(-c4ccccc4)nn23)cc1Cl`, the Potency was “inactive”. In the case of `CC(C)(C)S(=O)N1Cc2cc(C(=O)NCCCN3CCOCC3)nc(-c3cccc(-c4cc5ccccc5o4)c3)c2[C@H]1CCO` (some centres undefined), the Potency is reported as inconclusive: 14.1 µM [inhibitor, single point]. In the case of `CCc1ccc2c(c1)-c1ccccc1S(=O)(=O)N2CC(=O)N1CCC(C)CC1`, the Potency is reported as “inactive”. With `Cc1ccc(CN=c2c([N+](=O)[O-])nn(-c3ccc(Cl)cc3)n2O)cc1` the Potency was “inactive”. With `S=C1NC(c2ccccc2)=NCN1c1ccc(Cl)cc1` the Potency was “inactive”. With `CCOc1ccccc1C(=O)N(Cc1cccs1)c1ccc(Cl)cc1` the Potency was active: 17.8 µM. In the case of `CCOc1cc(C(=O)NCc2ccc(-c3nc4ccccc4o3)cc2)cc(OCC)c1OCC`, the Potency is reported as “inactive”. In the case of `CCCc1c(O)nc(SCCN(CC)CC)n(C(=O)c2ccccc2)c1=O`, the Potency is reported as inconclusive: 35.5 µM [inhibitor, single point]. For `CCN(CC(=O)Nc1ccc(NC(C)=O)cc1)C(=O)c1ccc(C(=O)c2ccccc2)cc1`, the Potency was inconclusive: 35.5 µM [inhibitor, single point]. With `Cc1ccc(Nc2cc(C(=O)NCc3cccs3)c3ccccc3n2)c(C)c1` the Potency was “inactive”. With `COc1ccc(O)c(-c2c(-c3ccc(Cl)cc3)n[nH]c2C)c1` the Potency was inconclusive: 17.8 µM [inhibitor, single point]. With `COc1ccc(/C=C2\SC(=O)N(CCNC(=O)Cc3coc4cc(OC)ccc34)C2=O)cc1` the Potency was inconclusive: 35.5 µM [inhibitor, single point]. In the case of `Cc1ccc(S(=O)(=O)Nc2cc(C(F)(F)F)ccc2N2CCOCC2)cc1C`, the Potency is reported as inconclusive: 12.6 µM [inhibitor, partial curve, poor fit]. With `Cc1ccc(C(=O)NC(=S)N2CCN(c3cc(C)ccc3C)CC2)cc1` the Potency was inconclusive: 7.08 µM [inhibitor, partial curve, poor fit]. For `C[C@@H]1CCCCO[C@H](CN(C)Cc2ccc(Cl)c(Cl)c2)[C@H](C)CN([C@@H](C)CO)C(=O)c2cc(NC(=O)Nc3ccc(F)cc3)ccc2O1`, the Potency was active: 10 µM. With `Cc1ccc(NC(=O)Cc2coc3c(C)c(C)ccc23)cc1Cl` the Potency was inconclusive: 14.1 µM [inhibitor, single point]. For `O=C(NCCc1cccc(Cl)c1)c1ccc(Cl)c([N+](=O)[O-])c1`, the Potency was “inactive”. For `COc1ccc(/C=C/C(=O)c2ccc(Cl)cc2)c(OC)c1`, the Potency was inconclusive: 12.6 µM [inhibitor, single point]. With `CC(=O)Nc1cccc(Oc2ncnc3scc(-c4ccc(C(C)C)cc4)c23)c1` the Potency was inconclusive: 35.5 µM [inhibitor, single point]. In the case of `CN(C)c1ccc(CCc2ccc(N)cc2)cc1`, the Potency is reported as “inactive”. In the case of `Cc1cccc(-n2c3nc(=O)[nH]c(=O)c-3cc3c(C)nn(-c4ccccc4)c32)c1C`, the Potency is reported as inconclusive: 17.8 µM [inhibitor, single point]. For `CCOC(=O)C(=NC1CCCCC1)NNc1cccc(C(F)(F)F)c1`, the Potency was inconclusive: 12.6 µM [inhibitor, partial curve, poor fit]. For `O=C(NCc1ccc(F)cc1)c1ccc(S(=O)(=O)Nc2cccc(C(F)(F)F)c2)cc1`, the Potency was inconclusive: 11.2 µM [inhibitor, partial curve, poor fit]. In the case of `COc1ccc(OCCNC(=O)/C=C/c2ccccc2)cc1`, the Potency is reported as “inactive”. With `CC(C)(C)c1ccc(OCC(=O)Nc2ccc3c4c(cccc24)C(=O)NC3=O)cc1` the Potency was inconclusive: 35.5 µM [inhibitor, single point]. With `CN(CC(=O)NC(=O)NC1CCCCC1)CC(=O)Nc1ccc(OC(F)(F)F)cc1` the Potency was inconclusive: 35.5 µM [inhibitor, single point]. For `COc1ccc(C(C)(NC(C)=O)c2nc(/C=C/c3ccccc3)cs2)cc1` (centres undefined), the Potency was “inactive”. With `Cc1ccc(-c2nc3cc(C)ccc3o2)cc1` the Potency was “inactive”. With `O=C(CC(O)(c1ccccc1)C(F)(F)F)c1cccs1` (centres undefined) the Potency was inconclusive: 22.4 µM [inhibitor, single point]. With `COc1ccc(-c2nnc(Nc3ccc(CC(N)=O)cc3)c3ccccc23)cc1` the Potency was inconclusive: 22.4 µM [inhibitor, single point]. For `C/C(=N\Nc1cc(N2CCOCC2)nc(C)n1)c1ccc(F)cc1`, the Potency was inconclusive: 35.5 µM [inhibitor, single point]. In the case of `CCC1CCCCN1CCNC(=O)CCS(=O)(=O)c1ccc(Br)cc1` (centres undefined), the Potency is reported as “inactive”. In the case of `CC[n+]1ccccc1/C=C1\Sc2ccc(C)cc2N1C`, the Potency is reported as inconclusive: 7.94 µM [inhibitor, partial curve]. For `CCOc1ccc2c(c1)C(C)=CC(C)(C)N2S(=O)(=O)c1ccc(C)cc1`, the Potency was inconclusive: 10 µM [inhibitor, partial curve, poor fit]. For `COc1cc(CC(=O)OCc2cccc([N+](=O)[O-])c2)cc(OC)c1OC`, the Potency was “inactive”. For `CC(=O)c1c(O)cc(O)c(C(C)=O)c1O`, the Potency was inconclusive: 22.4 µM [inhibitor, partial curve, poor fit].
